Laboratory results: the supplement of paper PMC12217912
The other results are listed elsewhere or left out. Sequences were assembled here from the parent chain. Inactive controls read about 0.05.

B1: TEV protease; numbered along this chain (parent)
chain: MGESLFKGPRDYNPISSSICHLTNESDGHTTSLYGIGFGPFIITNKHLFRRNNGTLVVQSLHGVFKVKDTTTLQQHLVDGRDMIIIRMPKDFPPFPQKLKFREPQREERICLVTTNFQTKSMSSMVSDTSCTFPSGDGIFWKHWIQTKDGQCGSPLVSTRDGFIVGIHSASNFTNTNNYFTSVPKNFMELLTNQEAQQWVSGWRLNADSVLWGGHKVFMVKPEEPFQPVKEATQL

Variants of: B1
Assay: raw area under fraction-flipped curve 0-4 h after induction (AUC4h, not background-subtracted), DNA-recorder readout of cleavage of the substrate (dimensionless); higher = more cleavage of the substrate by the protease variant
Settings: temperature: 34 °C; time window: 0-4 h after rhamnose induction
Description: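 In vivo DNA recorder in E. coli TOP10(DE3) ΔrhaA at 34 °C. Each TEVp single-site mutant (parent TEVp 0) is paired with a single-site variant of the 7-mer TEVs (canonical ENLYFQ|S). The substrate sits between flexible linkers in a Bxb1-sfGFP-TEVs-SsrA fusion, so cleavage stabilises Bxb1 and speeds flipping of a recombination array, read by NGS. The value is the raw area under the fraction-flipped curve over 0-4 h after rhamnose induction (AUC4h), with ≥20 reads per time point. It is not background-subtracted; inactive controls average about 0.047.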
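Further: Bxb1 expression induced with 0.2% (w/v) L-rhamnose at OD600 near 0.5, cultures sampled hourly, flipped fraction per protease–substrate barcode pair counted by paired-end Illumina sequencing.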

Variant | area with substrate ENLYFAS | area with substrate ENLYFDS | area with substrate ENLYFES | area with substrate ENLYFFS | area with substrate ENLYFGS | area with substrate ENLYFHS | area with substrate ENLYFIS | area with substrate ENLYFKS | area with substrate ENLYFLS | area with substrate ENLYFMS | area with substrate ENLYFNS | area with substrate ENLYFPS | area with substrate ENLYFRS | area with substrate ENLYFSS | area with substrate ENLYFTS | area with substrate ENLYFVS | area with substrate ENLYFWS | area with substrate ENLYFYS | area with substrate ENLYFCS
I15D | 0.0454 | 0.0497 | 0.0503 | 0.0628 | 0.0406 | 0.0594 | 0.0449 | 0.0352 | 0.0438 | 0.058 | 0.0373 | 0.0524 | 0.0601 | 0.044 | 0.0436 | 0.0456 | 0.0481 | 0.0439 | –
I15Q | 0.0524 | 0.0558 | 0.0526 | 0.0686 | – | 0.058 | 0.0518 | 0.0594 | 0.0628 | 0.0583 | 0.0552 | 0.0568 | – | 0.0778 | 0.0657 | 0.0501 | 0.0485 | 0.0662 | 0.058
I15E | 0.0453 | 0.0576 | 0.0601 | 0.0627 | 0.0432 | 0.0492 | 0.0529 | 0.0578 | 0.0489 | 0.0607 | 0.0599 | 0.056 | 0.0527 | 0.0488 | 0.048 | – | 0.0544 | 0.0503 | 0.0416
N13I | 0.065 | 0.06 | 0.0608 | 0.0553 | 0.0586 | 0.0654 | 0.0564 | 0.0665 | 0.0637 | 0.0645 | – | 0.0568 | 0.0292 | – | 0.0571 | – | 0.0555 | 0.0499 | 0.0672
N13E | 0.058 | 0.0602 | 0.0569 | 0.0511 | 0.0604 | 0.0615 | 0.0548 | 0.0549 | – | 0.0638 | 0.0715 | 0.0609 | – | 0.0456 | 0.0357 | 0.0598 | – | 0.0631 | 0.0605
N13P | 0.0593 | – | 0.0625 | 0.0684 | – | 0.0629 | 0.0546 | 0.0667 | 0.0506 | 0.0686 | 0.0693 | 0.0598 | 0.0623 | 0.0645 | 0.057 | – | 0.059 | 0.0472 | 0.09
N13L | 0.0584 | 0.0679 | 0.067 | 0.0631 | 0.0476 | 0.0606 | 0.0603 | 0.0625 | 0.0464 | 0.0694 | 0.0798 | 0.0621 | 0.0575 | – | 0.0608 | 0.0478 | – | 0.0547 | 0.059
N24E | 0.0605 | – | 0.0712 | 0.0875 | 0.0513 | – | 0.0509 | 0.0628 | 0.0577 | 0.0644 | 0.0585 | 0.0583 | 0.0598 | 0.0557 | 0.0616 | – | 0.0676 | 0.0596 | 0.0573
Y12L | 0.0621 | 0.0625 | 0.0467 | 0.0646 | 0.0521 | 0.0628 | 0.059 | 0.0546 | 0.0592 | 0.0717 | 0.0632 | 0.0531 | 0.0675 | 0.0288 | 0.0546 | 0.0714 | 0.0491 | 0.0565 | 0.0585
D27C | 0.0559 | 0.0639 | 0.0584 | 0.0606 | 0.0607 | – | 0.0561 | 0.0466 | 0.0559 | 0.0598 | 0.0614 | 0.052 | 0.0582 | 0.0676 | 0.0311 | 0.0109 | 0.042 | 0.055 | 0.0532
